The list shows a part of the results.

For this test, the target named is T1, OsWOX13 (Oryza sativa, UniProt Q5QMM3 1-267).
T1 sequence: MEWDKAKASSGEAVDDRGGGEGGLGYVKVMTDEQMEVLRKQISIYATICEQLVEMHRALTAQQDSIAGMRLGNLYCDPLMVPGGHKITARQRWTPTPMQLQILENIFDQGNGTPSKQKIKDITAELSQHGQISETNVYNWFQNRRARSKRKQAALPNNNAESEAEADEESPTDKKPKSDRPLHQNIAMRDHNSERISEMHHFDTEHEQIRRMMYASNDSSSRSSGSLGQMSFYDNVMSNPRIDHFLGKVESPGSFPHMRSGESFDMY
As to the kind of experiment: protein-binding microarray (RPBM); PBS, 2% BSA, 51.3 ng/ul salmon testes DNA, 50 uM zinc acetate, 200 nM TF, 25 C, 1 h; high values mean tight binding. As to conditions: protein: recombinant; tags: N-terminal polyhistidine and DsRed monomer fusion (pET32a); label: CyDye5-dUTP incorporated in the synthesized complementary strand; 3' TTTTT single-stranded linker to array surface; dsDNA, one strand shown. An outline of the steps:
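Using Ni–NTA, transcription factors fused N-terminally to polyhistidine and DsRed were purified after expression in E. coli BL21-CodonPlus. These were incubated at 200 nM with a blocked, double-stranded custom Agilent array for 1 h at 25 °C in a buffer containing 50 µM zinc acetate, and the array was washed. The binding signal is per-feature fluorescence intensity (arbitrary units) on an Axon 4000B scanner.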
As to “TACTGTAATAAATCAACAAATAATAATAGTACTAGTAGCACGGAGTCACCTAGTGCAG”, the binding signal was 3390 fluorescence intensity (a.u.). The figure for “AAAATTATCAATAACGGTATTAAAATCAATAGTGTTCAAGCGGAGTCACCTAGTGCAG” is 7880 fluorescence intensity (a.u.).

Regarding “TTCACACAAGATTGGCTACATGGGCATCGAGAAATGTAAACGGAGTCACCTAGTGCAG”, the binding signal was 3360 fluorescence intensity (a.u.). For “TCTGACTATTTCCGATCATTTTCATCACTAATCTCACACACGGAGTCACCTAGTGCAG” the value was 4650 fluorescence intensity (a.u.). With “TAAGCATAATTGCTCCATGATTTGGCAATGTGATGCTACACGGAGTCACCTAGTGCAG”, the binding signal was 25200 fluorescence intensity (a.u.). The figure for “ATCTAAATTATGAGAAATTGTAGTTGTAAAATCCAGAAAACGGAGTCACCTAGTGCAG” is 5730 fluorescence intensity (a.u.); for “CAGCTCATCAAGGTCAAATCAAATCATTCACGTCGTAACGCGGAGTCACCTAGTGCAG” it is 5060 fluorescence intensity (a.u.); for “AGGGGATACTTTGTTTTGATTGGATTTGGAACTCGATGACCGGAGTCACCTAGTGCAG” it is 9790 fluorescence intensity (a.u.). In the case of “AGACGCGTTTATTTAGTTTAATTAAGGCAAATTATGGATACGGAGTCACCTAGTGCAG”, the binding signal is 5770 fluorescence intensity (a.u.).

On to “CTTGTTATTGAATAATGGATTAACTAACTAATAACTAACGCGGAGTCACCTAGTGCAG”, for which the binding signal was 12800 fluorescence intensity (a.u.). The figure for “TATGTACTGATGATTTGGTGATTGATTTCATATCAGCTTTCGGAGTCACCTAGTGCAG” is 41700 fluorescence intensity (a.u.); for “TGTAAACTTAATCACAAACTCCTGGGTTAAGCTCGATCGACGGAGTCACCTAGTGCAG” it is 3870 fluorescence intensity (a.u.). Regarding “TGGTGTAATTGAATTATAGATCGGATAAGTAATTTAAGAGCGGAGTCACCTAGTGCAG”, the binding signal was 25700 fluorescence intensity (a.u.). For “GACGGATTAATTAGGCTTAATAAATTCGTCTCGCGGTGTACGGAGTCACCTAGTGCAG” the value was 24600 fluorescence intensity (a.u.); for “ATAAAGTGATTTAATTTTAGTTAAAGTTAAACTACTTTAACGGAGTCACCTAGTGCAG”, 21100 fluorescence intensity (a.u.); for “AATCAGGATTAGTCTCATTTAATTGGGATATTACACGGTTCGGAGTCACCTAGTGCAG”, 7380 fluorescence intensity (a.u.). For “GCGTAATTAGACTCAAAAGATTCGTCTCGCGATTTACATGCGGAGTCACCTAGTGCAG”, the binding signal is 36500 fluorescence intensity (a.u.). For “AATATAATGAAATTTCACAGAGGAGGGACTGGGCTTTATACGGAGTCACCTAGTGCAG”, the binding signal was 3240 fluorescence intensity (a.u.).

In the case of “ACAGATTTGTCACGTCCAAAATTAATGCGTACACTCTGCGCGGAGTCACCTAGTGCAG”, the binding signal was 7380 fluorescence intensity (a.u.). The figure for “TCTTGTCACTGAAAATTATTGACTGCTTCCCTTCTTTGTTCGGAGTCACCTAGTGCAG” is 3970 fluorescence intensity (a.u.); for “GTGATTTGTCAGCTGTTAGTTGTCACACCTACTCATCAGCCGGAGTCACCTAGTGCAG” it is 4350 fluorescence intensity (a.u.).

Take “ATTAAGATGATAAGTTGTTAGATTGAAATATGCCTATCAACGGAGTCACCTAGTGCAG”: the binding signal was 3650 fluorescence intensity (a.u.). The figure for “CTATTTTAATTGACGTTTTGGACAATGACACGGTCTACAACGGAGTCACCTAGTGCAG” is 20300 fluorescence intensity (a.u.). The figure for “GCTGTTTGATCCATAATTTATCCGCGCGTCGTCACTCCGACGGAGTCACCTAGTGCAG” is 5840 fluorescence intensity (a.u.).

As to “GTACTTAATTAACCTGACCTGCGTTCACTTGGGTTAAAGTCGGAGTCACCTAGTGCAG”, the binding signal is 19700 fluorescence intensity (a.u.). For the sequence “TATCATTTAAAGTTAACTGATTGCAAGAAGCCTTAATTCTCGGAGTCACCTAGTGCAG”, the binding signal was 7520 fluorescence intensity (a.u.). The figure for “CGGACGTAACTAATTAATTACTACAAGCATTCCAGCAAATCGGAGTCACCTAGTGCAG” is 23000 fluorescence intensity (a.u.); for “AGATCAATCACAGAAGACACGAGATTTAACGTGGAAAACCCGGAGTCACCTAGTGCAG” it is 35200 fluorescence intensity (a.u.). The figure for “TGTGATTTCCTGCTTCTTCTGACTATAAGGTTTATTAGTGCGGAGTCACCTAGTGCAG” is 10700 fluorescence intensity (a.u.); for “TCATTAATTTACAGCCGTTGGATCGGTAGATTACATCCCACGGAGTCACCTAGTGCAG” it is 18800 fluorescence intensity (a.u.).

With “CTCAGTCTATTTTAGATTATATTTGTATTAGCATGCTTGACGGAGTCACCTAGTGCAG”, the binding signal was 5810 fluorescence intensity (a.u.). The figure for “GCTTATTTGACTGGTGTATTTCGTTTGGGCATTGAGACCACGGAGTCACCTAGTGCAG” is 15900 fluorescence intensity (a.u.); for “CATGATTATATCGGTTAATGGAGGTAATTGTTTGTTGGTACGGAGTCACCTAGTGCAG” it is 51400 fluorescence intensity (a.u.); for “TTTGATTTAGTAGGCAACCAATGGGACTCTCAATAACATTCGGAGTCACCTAGTGCAG” it is 7150 fluorescence intensity (a.u.). As for “ACCATTATTTAACATGTCCAATTTTAATCGTCCGTCTTATCGGAGTCACCTAGTGCAG”, the binding signal was 3360 fluorescence intensity (a.u.). For “TTGCTAATGACTAGTAGTGATTCAGTTTAGGCTCTTGACACGGAGTCACCTAGTGCAG” the value was 6100 fluorescence intensity (a.u.); for “AATTAATCAGGCCCTGTTACTGAATCGAACAGCCCAAACGCGGAGTCACCTAGTGCAG”, 9370 fluorescence intensity (a.u.). “AAAATTTTGATTAATCTCGTATTGGGTTCTTGTATGGAAACGGAGTCACCTAGTGCAG”: the binding signal is 29200 fluorescence intensity (a.u.).

Regarding “AAAACCAATCAGCAACCCAATCCAACCTTCCTCCGTCCGACGGAGTCACCTAGTGCAG”, the binding signal was 14700 fluorescence intensity (a.u.). The figure for “ATTTAACTTTAACTTCCTCGTTTTCCGTTAGCACACTTTTCGGAGTCACCTAGTGCAG” is 3250 fluorescence intensity (a.u.); for “CAACACATGATTGCCGGGCTTTCTTCCCTCTCGTCCTGAGCGGAGTCACCTAGTGCAG” it is 32000 fluorescence intensity (a.u.); for “AGTTGATCTGAACTTTAGACAGAATTGCAACAATCGGTGTCGGAGTCACCTAGTGCAG” it is 7580 fluorescence intensity (a.u.).

(Values after PMC7819943, “Rice protein-binding microarrays: a tool to detect cis-acting elements near promoter regions in rice”.)
